Data taken from the supplement of paper PMC3334620.
Whole data set: some 33,000 sequences, median “E-score (-0.5 to 0.5)” near -0.054, cut for the highest 2% near 0.35. This is one part of the list.

target: T1, Stb5 (UniProt P38699); assay: PBM E-score (8-mer binding enrichment) (E-score (-0.5 to 0.5)); higher = stronger / more preferred TF binding; most listed sequences are background and not binding sites; details: protein concentration: 200 nM; construct: GST-full length
T1 sequence: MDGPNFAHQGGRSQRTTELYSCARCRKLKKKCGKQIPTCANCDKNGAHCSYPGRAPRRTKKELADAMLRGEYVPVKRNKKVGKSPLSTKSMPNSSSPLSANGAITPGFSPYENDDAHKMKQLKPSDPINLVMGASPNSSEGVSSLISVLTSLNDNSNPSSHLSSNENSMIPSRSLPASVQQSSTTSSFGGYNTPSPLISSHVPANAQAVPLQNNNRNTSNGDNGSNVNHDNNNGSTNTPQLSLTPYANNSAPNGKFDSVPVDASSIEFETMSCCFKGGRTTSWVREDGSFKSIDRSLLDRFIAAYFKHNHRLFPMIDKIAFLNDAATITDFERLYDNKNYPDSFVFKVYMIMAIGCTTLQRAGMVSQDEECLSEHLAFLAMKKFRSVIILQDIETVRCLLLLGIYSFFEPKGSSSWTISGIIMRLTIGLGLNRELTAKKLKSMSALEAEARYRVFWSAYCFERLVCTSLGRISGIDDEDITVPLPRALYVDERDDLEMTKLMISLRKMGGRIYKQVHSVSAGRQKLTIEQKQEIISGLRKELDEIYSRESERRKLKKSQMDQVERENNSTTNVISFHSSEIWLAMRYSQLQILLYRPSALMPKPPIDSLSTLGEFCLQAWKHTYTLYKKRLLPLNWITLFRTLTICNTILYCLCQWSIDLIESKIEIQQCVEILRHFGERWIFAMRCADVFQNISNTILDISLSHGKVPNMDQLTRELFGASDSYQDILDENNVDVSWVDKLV
Method in brief: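 Yeast transcription factors carrying a GST tag, as full-length proteins or DNA-binding domains, were produced by PURExpress in vitro transcription/translation. About 100-200 nM protein was applied to universal all-10-mer Agilent arrays, double-stranded by primer extension on fresh or once-stripped slides. Bound protein was detected with fluorescent anti-GST, and scans were normalised with masliner. The Universal PBM Analysis Suite gave each ungapped eight-base word, pooled with its reverse complement, an E-score, a modified Wilcoxon-Mann-Whitney statistic.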

In order of falling “PBM E-score” value:
1. ATTATACC  0.362
2. ATATCGCC  0.344
3. CGCAATTA  0.313
4. AGTCGGAG  0.302
5. ATACGGGG  0.232
6. GCAACGGC  0.218
7. CGTGTCGC  0.189
8. AGACGGCG  0.163
9. TACGGGCA  0.143
10. AACTAGCG  0.132
11. GCTCTAAC  0.12
12. ACAATTAA  0.0893
13. ATCGCGAA  0.0839
14. CGTTAACA  0.0835
15. TGTAGTAA  0.0797
16. ATCGACCG  0.0775
17. CGGGAGTC  0.0682
18. TAGCCAAA  0.0668
19. AAACCATA  0.0549
20. ACGCATAA  0.045
21. ATATTGCA  0.0355
22. GCGAAAAC  0.0296
23. CACCAACC  0.0164
24. CTCATGAC  0.0141
25. GATAATCA  0.00974
26. ACGCACAT  0.00313
27. AAAGTACG  0.00248
28. AATAACGT  0.00055
29. AGTATCAT  -0.00028
30. CGAAATCA  -0.00127
31. ACTTTCAC  -0.00245
32. AATAGTAG  -0.00307
33. CCTAGCGC  -0.00644
34. GCCACTAC  -0.00756
35. CACTGAGG  -0.0119
36. GTTTGATA  -0.0162
37. CAACCGTC  -0.0245
38. CTCGCGAC  -0.0342
39. GGCACGTA  -0.0354
40. ATTCTGAC  -0.0459
41. AACCAGTC  -0.048
42. CTCTAGTC  -0.0558
43. CATGGGGC  -0.0578
44. CCAAGGGG  -0.0613
45. ATCAGAAC  -0.0619
46. AACACTTA  -0.0638
47. CGAGAAGA  -0.0708
48. GGCCCTCA  -0.0732
49. AGGTAAGC  -0.0785
50. AAGTAACT  -0.0859
51. GAGCTAGC  -0.0911
52. GAGCCATA  -0.0923
53. ATCTGCAT  -0.0951
54. AGAAGCGA  -0.0959
55. GTCATACA  -0.102
56. ATAACAGG  -0.106
57. CAATCAGA  -0.107
58. AAACTGGC  -0.109
59. AGTGCATG  -0.113
60. ACAAAGCT  -0.113
61. ATAGATAG  -0.12
62. GCAGCCAA  -0.121
63. CCAAGCAG  -0.122
64. AGGGGGTA  -0.124
65. CTCGGCTC  -0.134
66. CCTTGCGA  -0.136
67. CCACGCGA  -0.147
68. GATAGTGA  -0.148
69. CTTTCGAC  -0.148
70. AAGGCGAT  -0.153
71. GCCTTCAA  -0.157
72. AGCCCTGG  -0.164
73. AGCTGGAA  -0.172
74. CATGGATA  -0.179
75. ACACATTA  -0.179
76. AGTCTTTA  -0.186
77. CTTGACTA  -0.193
78. AATTGAAA  -0.198
79. CGAGTTGC  -0.202
80. AATCTGTG  -0.207
81. ACAGTCAG  -0.211
82. GCCTCACA  -0.212
83. TGACCCAA  -0.217
84. AACACACT  -0.219
85. CAGAAGTA  -0.225
86. CCAGAATC  -0.226
87. CTGGGCGA  -0.227
88. CATCATTC  -0.235
89. AAGATGAG  -0.235
90. TCAACCCA  -0.246
91. CTCGCTAC  -0.246
92. AGGCGTGG  -0.271
93. CACACTGG  -0.272
94. ATGTGAAG  -0.279
95. CCAAGACA  -0.283
96. AAGAGCAC  -0.291
97. ATGAGTGA  -0.308
98. AGCTGGCA  -0.361
